In the test the target is GST-CIN85 full-length (UniProt Q96B97). Nature of the test: SPR; proteins immobilized via an N-terminal GST-tag, peptides as analyte; Biacore T200, steady-state affinity; both purified. (Surface plasmon resonance follows binding to a sensor surface in real time, without labels.)

By UniProt entry, the sequences of proteins in these tests, tags left out.
UniProt Q96B97: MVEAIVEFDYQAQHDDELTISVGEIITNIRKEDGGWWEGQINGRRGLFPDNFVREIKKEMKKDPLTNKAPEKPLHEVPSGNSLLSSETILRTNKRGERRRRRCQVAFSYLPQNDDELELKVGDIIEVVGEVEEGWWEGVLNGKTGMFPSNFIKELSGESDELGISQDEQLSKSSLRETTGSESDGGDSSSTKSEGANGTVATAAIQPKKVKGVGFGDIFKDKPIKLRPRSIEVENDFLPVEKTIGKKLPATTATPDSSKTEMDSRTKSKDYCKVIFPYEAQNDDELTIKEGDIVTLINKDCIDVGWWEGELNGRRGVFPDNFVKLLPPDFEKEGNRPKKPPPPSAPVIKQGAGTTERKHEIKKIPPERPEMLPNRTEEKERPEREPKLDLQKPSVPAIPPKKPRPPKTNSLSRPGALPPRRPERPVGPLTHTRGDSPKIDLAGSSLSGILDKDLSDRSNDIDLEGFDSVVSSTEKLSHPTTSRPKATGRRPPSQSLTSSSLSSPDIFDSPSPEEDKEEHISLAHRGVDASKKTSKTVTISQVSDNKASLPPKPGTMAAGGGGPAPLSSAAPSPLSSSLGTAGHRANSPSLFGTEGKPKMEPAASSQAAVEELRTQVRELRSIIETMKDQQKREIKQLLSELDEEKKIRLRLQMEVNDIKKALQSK

Results are given in words; binding and its absence hold for the method and conditions named.

Regarding IDSCTYEAMYN [PepC2], the binding entry is recorded as “no binding”.

(Values after publication PMC7994203.)
